Sequences with one replicate were seen in a single cluster, so their values are uncertain.
Test system: ATP
Assay: switch fluorescence ratio, 500 uM ATP over buffer (Cy3 cluster intensity, sum of 5 cycles each) (fold (ratio)); higher = stronger signal-on switching upon ATP binding; sequences stand for … in TCGTCGGCAGCGTCAGATGTGTATAAGAGACAGTTTTTTTTTTTTTTTTTTTTTTTTT…TC
Conditions: aptamer strand: ATP DNA aptamer (quencher-CACCTGGGGGAGTATTGCGGAGGAAGG + anchor), 100 nM annealed; ATP concentration: 500 uM; one replicate
How it was run: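 For every switch-domain sequence, the fluorescence ratio is the mean of per-cluster values, each being summed target-cycle Cy3 intensity over summed buffer-cycle Cy3 intensity. Clusters outside 100-1000 RFU were excluded. On a modified Illumina MiSeq flow-cell, the Cy3-labelled switching-strand clusters were annealed to 100 nM quencher-labelled ATP aptamer, imaged in selection buffer and then after 15 min with 500 uM ATP at 22 °C. Five such cycles were run, with NaOH stripping and re-annealing between them.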
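Note: ATP exposure 15 min at 22 °C before imaging.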

Sequence	switch fluorescence ratio
TATTAAACGC	1
CGAATTGGGG	0.939
AAAAGTATTG	0.989
CCAGTCTACA	1.06
TTATGGATTG	1.04
CTAGAGTGTG	0.976
AACGGGCATA	1.05
CGGATCAGAT	1
TTAGTCTAAG	1.01
TTATCAAGCT	0.968
GACACAATGG	1.43
AGATCTCGAC	0.985
CCACCAACTG	1.11
AAGGTCCGAA	1.02
AGAGGATATG	0.987
CATGGTGTCA	1.01
TAGCGGGATG	1.41
TTACGAAACA	1.04
AGGGCTGTCG	1.03
CATAGCTGGG	0.988
AGCATATTGT	0.973
CATACTTAAA	1.03
TCAGTGCCTT	1.02
TATATTAGTT	1.01
GTGGTTGTA	0.972

Sequence	switch fluorescence ratio
TCCACTTGCA	1.05
GTCCGAAAGT	1.02
ATCGACGCCG	1.03
TAGATGATAT	1
CTATGTTAGT	1.04
AGCTTAAGTG	0.953
CATTTACGA	1.33
CTAGAGAGGG	0.981
TCAGGTTGTT	0.957
AGTAGAAGCC	0.998
TCGGGCTGAA	0.978
GAACTCTGAA	1
CGTCCTAATG	1.07
TATTTTTGAA	1.04
TTGGTATGA	1
TTGAATTAGT	1.02
GGGTTATCGT	0.982
TATTCACGTC	0.98
GTATGGTCAG	0.964
TATTCCCTCA	0.993
TTTATGTGTC	1.06
CGGTAGGCT	1.07
CTTGTTGACG	1.09
GGCATCAATC	1.04
TCGGTGCCA	1.02

Sequence	switch fluorescence ratio
GCCAATCCTT	0.991
CAGATCCCGT	0.974
TATGCGCCCT	0.985
TTTCTGTAGC	1.54
CTTTTGGGTT	0.953
TCTGGTCG	1.01
TACGGTAAGT	1.1
TTATTTGATG	1.03
TATATAGCCC	1.01
CTTGCCGGCC	1.05
TGCCGCCTAC	1.45
GATATTGGCC	1
TGACAACGTC	0.979
GTGTGAAGGG	1.02
GCAGGGGTAG	0.965
ACACAAGAAT	1.02
ACTTGGTAGG	1.01
AGGGCCATTC	1.01
TGTCAGAAGA	1.03
CACAGCGATA	3.82
TCGGAACGCC	1.19
AGAAATTGCT	0.966
CAAGGTTTCC	1.01
CGTTCACATT	1.01
CCGGTATTTT	1.01

Sequence	switch fluorescence ratio
TTTAATGAGG	1.05
GGCGGCAGGC	1.05
TGTGGCGCGA	1.01
GGTCGAGGCG	1
ACATAGCATC	1.79
TTAGAATTTG	0.943
TCCAGCGTGT	1.06
GATAGCCCTT	1.04
TTTCAGTCTT	1.01
GATAGGAGGC	0.956
TGTAAGTACG	1.24
GACGGGCAGC	1.06
CACTCAGACG	1.01
CAGTTCAACA	1.02
CGTTCCGCTA	5.37
ACACTTTGCA	1.03
GCCCCACCAA	1.02
ATCCGAGTA	1.04
TTTTTTGTG	0.974
TTAAAACTAA	0.986
AGAACGGAAA	1.02
GAGTCATGGA	0.956
GCAGATGGA	0.989
GGACGCGCGC	1.04
TGTCGTAGCA	1.01

Source: the supplement of paper PMC10126150
